Laboratory results taken from PubChem BioAssay (Tox21).
Inconclusive means that the source gave no clear call. Such entries were picked first, then a sample of the others. For part of these data: Potencies of inconclusive entries are left out as doubtful fits. Active and inactive are the calls of the source. Calls follow the shape of the dose curve; as a rule, active = well fitted curve in the direction sought with a large enough effect in the repeat runs; inconclusive = weak or mixed curves; inactive = no such curve, though single readings can be large; an effect the other way counts as inactive or inconclusive.

Columns and labels:
[1] = A CellTox Green Cytotoxicity Assay to monitor cytotoxicity in HEK293 cells - 8 hour (AID 1224884); also: nearly all actives have a fitted effect of over 35% in size
In short: (§1)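 Cells (HEK293, 600/well) and dye reagent are dispensed together. After 5 h at 37 C, 23 nL compound is pinned in. Plates stay at 37 C for 40 h with fluorescence read at 0h, 8h, 16h, 24h, 32h and 40h.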

[2] = qHTS RealTime-Glo MT Cell Viability Assay in HEK293 cells - 24 hour (AID 1224886); also: nearly all actives have a fitted effect of over 50% in size
In short: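 Cells + reagent dispensed (600 cells/well, HEK293) → 5 h at 37 C/5% CO2 → 23 nL compound in DMSO pinned → 40 h at 37 C → luminescence read at 0, 8, 16, 24, 32, 40 h.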

[3] = A CellTox Green Cytotoxicity Assay to monitor cytotoxicity in HEK293 cells - 16 hour (AID 1224888); also: nearly all actives have a fitted effect of over 35% in size
In short: as §1

[4] = qHTS RealTime-Glo MT Cell Viability Assay in HepG2 cells - 0 hour (AID 1224889); also: nearly all actives have a fitted effect of over 50% in size
In short: (§2)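 Real-time, nonlytic viability: 600 HepG2 cells/well mixed with NanoLuc enzyme plus prosubstrate; 5 h settle, compound (DMSO) added by pintool; luminescence monitored over 40 h at 37 C.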

[5] = A CellTox Green Cytotoxicity Assay to monitor cytotoxicity in HepG2 cells - 8 hour (AID 1224890); also: nearly all actives have a fitted effect of over 45% in size
In short: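 Cells and non-lytic dye reagent are dispensed together (600 HepG2 cells/well) and incubated 5 h before DMSO compound transfer. Kinetic fluorescence is then recorded in the same wells during 40 h at 37 C.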

[6] = qHTS RealTime-Glo MT Cell Viability Assay in HEK293 cells - 8 hour (AID 1224887); also: nearly all actives have a fitted effect of over 50% in size
In short: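 Real-time viability in HEK293: signal arises when living cells convert a prosubstrate for NanoLuc in the medium, so luminescence tracks viable cell number. Compound (23 nL, DMSO) added 5 h post-seeding; kinetic reads at 0–40 h, 37 C.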

[7] = qHTS assay to identify small molecule antagonists of the estrogen receptor alpha (ER-alpha) signaling pathway using the BG1 cell line in the presence of 0.1 nM 17-beta-estradiol - cell viability counter screen (AID 1259241); also: nearly all actives have a fitted effect of over 40% in size
In short: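 In this screen, hormone-deprived VM7Luc4E2 cells were seeded at 4,000 per well, dosed with compound and 0.1 nM estradiol final, and incubated 22 hr at 37C and 5% CO2; fluorogenic live-cell protease signal reported viability.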

[8] = qHTS RealTime-Glo MT Cell Viability Assay in HepG2 cells - 16 hour (AID 1224885); also: nearly all actives have a fitted effect of over 50% in size
In short: as §2
Potency is read from the fitted curve at half-maximal effect; tags tell the direction and shape of the fitted curve.

C/C=C/C=N/NC(=O)c1ccncc1
Potency [1]: inconclusive [activator, single point] | Potency [2]: inconclusive [rising, partial curve, poor fit] | Potency [3]: inconclusive [activator, single point]

CCCCCCCCCCOCC(O)CN (stereo unspecified)
Potency [1]: inconclusive [activator, single point] | Potency [2]: active: 23.9 µM | Potency [4]: inconclusive [rising, partial curve] | Potency [5]: active: 26.8 µM

CC1=C(/C=C/C(C)=C/C=C/C(C)=C/C=O)C(C)(C)CCC1
Potency [1]: active: 48.7 µM | Potency [6]: inconclusive [cytotoxic, partial curve, poor fit] | Potency [5]: inconclusive [activator, partial curve, poor fit] | Potency [7]: inconclusive [cytotoxic, single point]

NCc1cccc(C2CCN(C(=O)c3ccc(C#Cc4ccccc4F)o3)CC2)c1
Potency [1]: inconclusive [activator, single point] | Potency [3]: active: 49 µM | Potency [4]: inconclusive [cytotoxic, partial curve] | Potency [7]: active: 68.6 µM

Cc1cc(F)ccc1-c1cc(N2CC[C@@H](O)[C@H]2CO)ncc1N(C)C(=O)C(C)(C)c1cc(C(F)(F)F)cc(C(F)(F)F)c1
Potency [8]: active: 38.3 µM | Potency [2]: active: 17.1 µM | Potency [6]: active: 34.1 µM | Potency [3]: inconclusive [activator, single point] | Potency [4]: active: 1.71 µM | Potency [5]: inconclusive [activator, single point]
